# Read counts are not given, so values of variants with three or more changes are uncertain.
# B1: LINE1-mini (parent)
# chain: GGCAGAGCUCAACACAGCGUGGCAAAGUGGCUGUGGCUAGACUGCC
# Variants of: B1
# Assay: self-cleavage, relative activity (ratio to wild type); higher = more cleavage; in vitro, sequencing; the parent is a self-cleaving ribozyme
row,Variant,self-cleavage
1,G21U A26U A39C,0.73
2,G21C U34G G35C,0.04
3,G21U G29C U38C G44U,0.03
4,G21A G29U G36A C46U,0.19
5,G21C G35U G40U,0.09
6,G22A U34A C46G,0.09
7,G22A G29C C45U C46U,1.19
8,G21U C23A G44A,0.42
9,G22A A25G G33C U34A,0.01
10,G22C C37G A39G,0.01
11,G21A G30U G40U C42A,0.03
12,G22A U28C C46G,0.53
13,G21U U32C C37U,0.04
14,G21U G33U G44U,0
15,G22A U38C G44A,0.56
16,G21A U34G G44U,0
17,G22A A25C C37U U43A,0.15
18,G21U G35A A39C G44A,0.08
19,G22A G29U G33A,0.75
20,G22A G27A C31A,0.56
21,G21C G27C G33A,0.09
22,G21U C23U C42U,0.85
23,G22A U38A A41C,0
24,G21U A41U C42G G44A,0.12

row,Variant,self-cleavage
1,G22A A26G U28G,0.17
2,G21C G33U C37G,0.04
3,G21U G29A U32C G35U,0.08
4,G21C G22C C23G,0.23
5,G22A A24U C31A U32C G35U G40U G44U,0.04
6,G21U A26C U43A,0.06
7,G21C U43G C46A,0.01
8,G21C C23A G40U,0.18
9,G21U G27U C31G,0.15
10,G22A C31U G40A,0.03
11,G21U U28G G35U,0.06
12,G21U G29A G35U C42G,0.03
13,G22A A26U C31A U43C,0.04
14,G21U G35U A41U,0.2
15,G22C C23U C45U,0.56
16,G21U G27A U28A C31A,0.66
17,G21U A26U G44C,0.25
18,G21C U28C G35U,0.02
19,G22A C31A U34A G40C,0.01
20,G21A U28A G30A C31A U32C A39U C45U,0.07
21,G22C A26C G44U,0.42
22,G22C A25G G27U A39U,0.38
23,G22C C23A G27A,0.5
24,G22A G29U G36A,0.13

row,Variant,self-cleavage
1,G21U G36C C42A,0.07
2,G21U U32A U43A G44A,0.04
3,G22A G33U U38G A39G,0.03
4,G22C C23A A24U,0.39
5,G22A A26U G27A C31G U34A,0.04
6,G22A G27C G35U,0.09
7,G21U U34A U43A,0.04
8,G21U G22C G36A,0.06
9,G21A G30U U34A C42U,0.03
10,G21U A25U A41U,1.65
11,G21U A25U U34G,0.13
12,G21U C37U C46U,0.01
13,G22A C23G G35U A41C,0
14,G21C C23U C37A U38G,0.02
15,G21U A24U G30A,1.55
16,G21U G30C G35C,0.05
17,G21U G30C C46U,2.16
18,G21U G22C C31G,0.11
19,G21A U28C G36U,0.04
20,G22A U32G C37A,0.04
21,G22A A25G G44A,0.16
22,G21A G36A C42G,0.07
23,G22C A26C G33U,0.04
24,G22A G33A C37G C46A,0.04

row,Variant,self-cleavage
1,G22A G27A G29U G40A A41U,0.05
2,G22A A25C G30U,0.63
3,G21C A26G G44U C46G,0.1
4,G22A A25G G27A,1.06
5,G21C U28C G35U A41C,0.04
6,G22C A26G G35C,0.05
7,G21U G35A C42U,0.01
8,G21C C37A A41U,0.08
9,G21U U28A C37U,0.02
10,G21A U38A A39G,0.22
11,G21C C23A C46A,0.08
12,G21U U38A G44U,0.12
13,G21A G33U C45U,0.07
14,G22A C23U A25C C31U,0.08
15,G21C A26U G29U G30U,2.1
16,G21C A25C C31A U32A,0.53
17,G21U G22A C46G,1.69
18,G21U U32A C46G,0.37
19,G21A G29C G30A,2.02
20,G22C A24G G27A U34A,0.11
21,G22A A25C U32A U34A G40C U43A,0.01
22,G21C G35A C37U G40C,0.18
23,G21C C23U A41G,0.09
24,G22C C31U C37U,0.12

row,Variant,self-cleavage
1,G22A U34G A41C,0.03
2,G21U A24U G27U,1.82
3,G22A U32A C45U,0.47
4,G21U C23U A24U,1.11
5,G21U G22C C23U G33U U38A C42A,0
6,G21C G30U U38C C46A,0.25
7,G22A G27U G36C,0.03
8,G22C A25U A26G G44C,0.1
9,G21U U38C U43C,0.04
10,G21U U38C U43G,0
11,G21U U38C U43A,0.07
12,G21C G33U G40U,0.13
13,G21C G30A G35A C46U,0.22
14,G22C A25U A26U,0.73
15,G21A G29U C31U C37U,0.03
16,G21U U28C C37A,0.01
17,G21C G27A G30A G36A C45G,0.05
18,G21U C23U G40A A41G,0.04
19,G21C G30A C31U U43G C45A,0.03
20,G22A A24G C37A,0.02
21,G21C U28C C37A,0.01
22,G21U A24G A25C,1.69
23,G21C C31A C42U,0.06
24,G21C G22U C37U,0.02

row,Variant,self-cleavage
1,G21U C23G U34C,0.1
2,G21U C23A U43A,0.18
3,G21C G27C C37U C42G,0.03
4,G21U G27A G30U C31A,0.67
5,G21C A24C U32G U43A,0.02
6,G22A A24C A26G U34G,0.3
7,G21U G22A C23U U38A G40C,0.09
8,G21A G36U A39U C42A,0.03
9,G21U C31A C45U,0.47
10,G21A G29A G40A A41G,0.1
11,G22A U28G U43C,0.01
12,G21U G27C U28A C31A C42G,0.04
13,G21A U28G G35A A39G,0.71
14,G22A U34C C42U,0.05
15,G22C C31U U34G,0.01
16,G22A A25C G27A,0.78
17,G21C G29U A39U G40C,0.05
18,G21U A39C C46G,0.06
19,G21U G40C C45U,0.01
20,G22A G27U U28C C42U,0.02
21,G22A G27C C31G A41U,0.04
22,G21C A24G A25U G29A C37A C42G,0.07
23,G22A A41U C45A,0.36
24,G22A A41U C45G,0.22

row,Variant,self-cleavage
1,G21A U32G A41U C42A,0.04
2,G21C A24U U38C,1.47
3,G22C A25G U28G U32C,0.11
4,G21U G27C G30A,1.28
5,G22A C37U A39U U43A,0.01
6,G21C G29U C42G,0.01
7,G21C A24C U43C G44U,0.06
8,G21U A24C C31G,0.06
9,G22C A24C U38A,0.25
10,G22A U32C C42G,0.13
11,G21U A26C A41C,0.02
12,G22A U38G C45A,0.02
13,G21U C31G C46A,0.02
14,G21C G36A G40A,0.44
15,G21U G22U C23A G29C,0.74
16,G22C A25C G27C,0.94
17,G21C A26C G27U,0.99
18,G21U A24C G30U A41U G44A,0.08
19,G21U G29A C37A,0.03
20,G21U C31U A39G G44U,0.03
21,G21U U28C G40A,0.1
22,G22A C23U G27C U32A,0.19
23,G22C A25C U34C G40U C46U,0.1

# Reference: the RNAGym collection of RNA variant scans (doi:10.7554/elife.90254)
